Source: PubChem BioAssay AID504841 (National Center for Advancing Translational Sciences (NCATS), 2011)
Out of some 1,100 compounds screened, about 160 (15%) were called active. This list was built around the results that the source calls inconclusive (neither active nor inactive); the mix of calls is not that of the screen. The call rests on the fitted dose curve; in most records, active means well fitted inhibition curve with a large enough effect; inconclusive means small, poorly fitted or top-dose-only effect; inactive means no such curve, though single readings can be large or run the other way. Potencies beside an inconclusive call are fits to weak or partial responses and may not hold up.

The compounds below were run against ATP-dependent DNA helicase Q1 (Homo sapiens) (UniProt P46063) (assay: Confirmation qHTS Assay for Inhibitors of RecQ-Like Dna Helicase 1 (RECQ1) - Round 2 Cherry Picks). Details: recombinant RECQ1 DNA unwinding, red fluorescence; series mostly up to 119 µM.
Method in brief: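 RECQ1T1 (50 nM) was preincubated 15 min at room temperature with compounds in Tris pH 8.0 buffer with 2.5 ug/ml poly(dI-dC). Unwinding of 200 nM TAMRA/BHQ-2 forked duplex with 2 mM ATP was read twice, 2 h apart, normalized to enzyme-free and DMSO controls.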
Further: nearly all actives have a fitted effect of over 50% in size.
Potency means the concentration at half of the fitted maximal effect; tags describe the fitted curve by direction and shape.

Sequence of UniProt P46063 (P46063 whole entry, looked up): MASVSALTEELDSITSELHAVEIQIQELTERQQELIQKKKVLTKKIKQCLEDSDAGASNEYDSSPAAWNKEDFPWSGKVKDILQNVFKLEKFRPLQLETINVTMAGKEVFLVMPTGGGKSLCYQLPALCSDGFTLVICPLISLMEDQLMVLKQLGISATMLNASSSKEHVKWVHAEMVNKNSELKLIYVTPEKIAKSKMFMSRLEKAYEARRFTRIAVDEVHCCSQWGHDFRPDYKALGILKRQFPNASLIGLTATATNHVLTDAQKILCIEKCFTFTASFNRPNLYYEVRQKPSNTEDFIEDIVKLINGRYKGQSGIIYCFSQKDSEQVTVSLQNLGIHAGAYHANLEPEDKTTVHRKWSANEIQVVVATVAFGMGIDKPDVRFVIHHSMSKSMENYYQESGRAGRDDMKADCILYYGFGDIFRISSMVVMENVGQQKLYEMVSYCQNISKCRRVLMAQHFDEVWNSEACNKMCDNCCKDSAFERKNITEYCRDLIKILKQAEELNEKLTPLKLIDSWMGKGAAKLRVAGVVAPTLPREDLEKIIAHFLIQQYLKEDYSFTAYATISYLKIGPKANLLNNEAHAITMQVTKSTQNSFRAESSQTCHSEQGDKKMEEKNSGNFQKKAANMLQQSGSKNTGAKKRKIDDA

Row | SMILES | Potency
1 | O=C(COc1ccccc1Cl)c1ccc[nH]1 | inactive
2 | Cc1c(C(=O)OCc2ccccc2)[nH]c2c1C(=O)CC(c1ccco1)C2 (centres undefined) | inconclusive: 50.1 µM [inhibitor, partial curve]
3 | Cc1[nH]c(=O)c(C(=O)/C=C/c2ccccc2F)c2c1CCCC2 | inconclusive: 63.1 µM [inhibitor, partial curve, poor fit]
4 | O=C(Cc1cccs1)Nc1ccc(S(=O)(=O)Nc2ncccn2)cc1 | inconclusive: 50.1 µM [inhibitor, partial curve]
5 | Cc1nc2cc(-c3ccsc3-n3c(C)ccc3C)[nH]n2c(=O)c1Cl | inconclusive: 44.7 µM [inhibitor, partial curve]
6 | CC1=Nc2cc(C(=O)O)ccc2Sc2ccc(Br)cc21 | inactive
7 | CC(=O)N(C)/C=C1\Sc2ccccc2C1=O | inactive
8 | CCc1nnc(NS(=O)(=O)c2ccc(N/C=C\C(=O)c3cccc4ccccc34)cc2)s1 | inconclusive: 56.2 µM [inhibitor, partial curve]
9 | COc1ccc(-n2c(C)cc(/C=C/c3nc(O)c([N+](=O)[O-])c(=O)[nH]3)c2C)cc1 | inconclusive: 35.5 µM [inhibitor, full curve, poor fit]
10 | C=CCn1c(O)c(N=NC(=O)CNC(=O)/C=C/c2ccco2)c2ccccc21 | inconclusive: 2.51 µM [inhibitor, full curve]
11 | CCNc1ccc2c(Cl)cc(=O)oc2c1 | inactive
12 | Cc1ccc(-n2c(Cc3cccn3C)nnc2SCC(=O)N2CCc3ccccc32)cc1 | inactive
13 | COc1ccc(-n2cccc2/C=C2\C(=N)N3N=C(c4ccco4)SC3=NC2=O)cc1 | active: 7.08 µM
14 | N=C1/C(=C/c2ccc(-c3cccc(C(=O)O)c3)o2)C(=O)N=C2SC=C(c3ccccc3)N12 | inconclusive: 20 µM [inhibitor, full curve]
15 | COc1cccc(Nc2ncc3nc(-c4cc(F)cc(F)c4)c(=O)n(CCC#N)c3n2)c1 | inconclusive: 56.2 µM [inhibitor, partial curve, poor fit]
16 | O=[N+]([O-])c1ccc(C=Nc2ccc(Cl)cc2Cl)s1 | inconclusive: 79.4 µM [inhibitor, partial curve]
17 | O=C(/C=C/c1ccco1)OCc1nnc(-c2ccc(Cl)cc2)o1 | inconclusive: 39.8 µM [inhibitor, full curve]
18 | N#C/C(=C\c1ccc(-c2ccc(C(=O)O)cc2)o1)c1nc2ccccc2[nH]1 | inconclusive: 50.1 µM [inhibitor, partial curve]
19 | O=C(/C=C/c1ccccc1F)c1ccoc1 | inactive
20 | Cc1ccc2nc(NC(=O)C3CCN(S(=O)(=O)c4cc([N+](=O)[O-])ccc4Cl)CC3)sc2c1 | inconclusive: 22.4 µM [inhibitor, partial curve]
21 | Cc1cccc(C(=O)Nc2ccc(C(=O)/C=C/c3cccnc3)cc2)c1 | inconclusive: 70.8 µM [inhibitor, partial curve, poor fit]
22 | CC(C)CNC1=CC(=O)CC(c2ccco2)C1 (centres undefined) | inconclusive: 56.2 µM [inhibitor, partial curve, poor fit]
23 | O=C(Nc1cccc(S(=O)(=O)NC2=NCCC2)c1)c1cc(-c2ccco2)nc2ccccc12 | inconclusive: 3.55 µM [inhibitor, partial curve, poor fit]

Row | SMILES | Potency
24 | CCNc1ncc2nc(-c3cc(F)cc(F)c3)c(=O)n(CCc3ccccc3)c2n1 | active: 15.8 µM
25 | O=C(COC(=O)c1cccc(S(=O)(=O)N2CCN(c3ccccc3)CC2)c1)NCc1ccco1 | inconclusive: 31.6 µM [inhibitor, partial curve]
26 | O=C(CN(c1ccccc1)S(=O)(=O)c1ccccc1)NCCSCc1ccco1 | inconclusive: 35.5 µM [inhibitor, partial curve]
27 | CNc1ccc(Br)cc(C(=O)/C=C/c2cccc(OC)c2)c1=O | inconclusive: 56.2 µM [inhibitor, partial curve, poor fit]
28 | N=C1SC(c2ccccc2)C(=O)N1c1ncc(Cc2ccccc2Cl)s1 (centres undefined) | inconclusive: 100 µM [inhibitor, partial curve, poor fit]
29 | Nc1c(S(=O)(=O)O)cc(Nc2cccc3ccccc23)c2c1C(=O)c1ccccc1C2=O | inconclusive: 28.2 µM [inhibitor, full curve]
30 | CC(=O)N1N=C(c2ccccc2)OC1c1ccc([N+](=O)[O-])s1 (centres undefined) | inconclusive: 31.6 µM [inhibitor, full curve]
31 | Cc1c2cnn(CC(=O)Nc3c(F)c(F)cc(F)c3F)c(=O)c2c(C)n1Cc1ccccc1F | inconclusive: 1 µM [inhibitor, full curve]
32 | CCN(CC)C(=O)CC(c1ccccc1)c1ccco1 (centres undefined) | inconclusive: 89.1 µM [inhibitor, partial curve, poor fit]
33 | Oc1ccc(-c2cn3c(n2)SCC3)cc1O | active: 7.08 µM
34 | O=C1CC(Nc2ccc(N3CCOCC3)cc2)C(=O)N1c1cccc(C(F)(F)F)c1 (centres undefined) | inactive
35 | CC1(C)N=C(c2ccc(Cl)cc2)C(=O)N1 | inconclusive: 112 µM [inhibitor, partial curve, poor fit]
36 | O=C(Cc1ccc(S(=O)(=O)N2CCOCC2)s1)Nc1nc2c(s1)CCCC2 | inconclusive: 50.1 µM [inhibitor, partial curve, poor fit]
37 | O=C(COc1cccnc1[N+](=O)[O-])c1ccc(Cl)s1 | inconclusive: 56.2 µM [inhibitor, partial curve, poor fit]
38 | O=C1c2ccccc2-c2onc3ccc(N4CCCC4)c1c23 | active: 56.2 µM
39 | CC(=O)OC1CCC2(C)C(COc3ccc4ccc(=O)oc4c3)C(C)(O)CCC2C1(C)C (centres undefined) | inactive
40 | CCOC(=O)C1=C(O)/C(=C/c2cc(OC)c(O)c(OC)c2)SC1=Nc1ccc(OC)cc1 | inconclusive: 50.1 µM [inhibitor, partial curve]
41 | COc1cc2cc3c(N)c(C(=O)NCc4ccco4)sc3nc2cc1OC | inconclusive: 35.5 µM [inhibitor, full curve]
42 | COc1ccccc1-c1nnc2n1N=C(c1ccc(O)c(O)c1)CS2 | inconclusive: 8.91 µM [inhibitor, full curve]
43 | COc1ccc(NC(=O)CSc2nc(O)cc(=O)n2-c2ccccc2OC)cc1 | inactive
44 | O=C(COc1ccc2c(c1)CCC2)N1CCN(c2cccc(C(F)(F)F)c2)CC1 | inactive
45 | c1ccc(Cc2nnc3sc(-c4ccco4)nn23)cc1 | inconclusive: 50.1 µM [inhibitor, partial curve]
46 | O=C(COC(=O)c1ccc(NS(=O)(=O)c2cccs2)cc1)NCc1ccco1 | inconclusive: 11.2 µM [inhibitor, partial curve, poor fit]

Row | SMILES | Potency
47 | O=C1C=C(N(CCO)Cc2ccccc2)c2ccccc2C1=O | inconclusive: 56.2 µM [inhibitor, partial curve, poor fit]
48 | C=C1c2cccc(O)c2C(O)=C2C(=O)[C@]3(O)C(O)=C(C(N)=O)C(=O)C(N(C)C)C3C(O)C12 (some centres undefined) | inactive
49 | CCc1ccc(/C=C/C(=O)c2cc(Br)ccc(=O)c2O)cc1 | inconclusive: 79.4 µM [inhibitor, partial curve]
50 | Cc1c(Cl)cnc(NC(=O)COC(=O)c2ccc([N+](=O)[O-])s2)c1Cl | active: 10 µM
51 | COc1ccc2[nH]c3c(C)c4ccncc4c(C)c3c2c1 | active: 7.94 µM
52 | C=CCn1c(C)cc(C(=O)Cn2ncc(Cl)c(Cl)c2=O)c1C | inactive
53 | CCCCC1=CC2=C(c3ccco3)C(=O)C(C)(OC(=O)c3ccc(OC)cc3)C(=O)C2=CN1Cc1ccccc1 (centres undefined) | inactive
54 | Cc1ccc(NC(=O)CN2C(=O)S/C(=C\c3cc(C)n(-c4ccc(C(=O)O)cc4)c3C)C2=O)cc1 | inconclusive: 56.2 µM [inhibitor, partial curve]
55 | Cc1ccc(C(=O)Nc2nc(-c3cccnc3)cs2)o1 | inactive
56 | O=C(/C=C/c1ccc(Br)cc1)c1ccc(NC(=O)c2ccco2)cc1 | inconclusive: 12.6 µM [inhibitor, partial curve, poor fit]
57 | COc1ccc(OC)c(N2C(=O)[C@@H]3C(c4ccccc4Cl)=NO[C@@H]3C2=O)c1 | inconclusive: 31.6 µM [inhibitor, partial curve]
58 | CC(C)(O)C#Cc1ccc(CN2CCCC(CO)(Cc3cccc(Cl)c3)C2)cc1 (centres undefined) | inactive
59 | O=C1CC(=O)CC(c2ccccc2Cl)C1 | inactive
60 | Cc1ccc(-n2c(=O)c(C#N)cc3c(=O)n4ccccc4nc32)cc1 | inactive
61 | COc1ncnc2c1NC1=C(S2)C(=NCCC(=O)O)CC(C)(C)C1 | active: 79.4 µM
62 | O=C(O)c1ccccc1-c1ccc(/C=C/c2cc(C(F)(F)F)[nH]c(=O)n2)o1 | active: 79.4 µM
63 | Cc1c(C)n(C(=O)CSc2nc3ccccc3[nH]2)c2ccccc12 | active: 35.5 µM
64 | COC(=O)c1cc(O)cc(OC)c1C(=O)c1c(O)cc(C)cc1O | inconclusive: 50.1 µM [inhibitor, partial curve]
65 | O=C(CCS(=O)(=O)c1ccc(Br)cc1)NCc1cccs1 | inconclusive: 56.2 µM [inhibitor, partial curve, poor fit]
66 | COC(=O)c1cc2ccsc2n1Cc1nc(-c2ccc(OC)cc2)oc1C | inactive
67 | C=CCSC1=N/C(=C\C=C\c2ccco2)C(=O)S1 | inconclusive: 50.1 µM [inhibitor, partial curve]
68 | O=C1/C(=C/c2ccc(O)c(O)c2)Oc2cc(O)ccc21 | active: 56.2 µM
69 | Cc1ccnc2nc(C(=O)Nc3nnc(-c4ccccc4)o3)nn12 | inactive
